Assay results taken from PMC4336329 (PLoS ONE, 2015).
In all, about 310,000 compounds went through this assay and about 2,200 (0.71%) showed an effect of 50% or more. Effects have a minus sign here. This is one part of the list.

These molecules were tested against human ether-à-go-go-related gene (hERG) potassium channel (human, UniProt Q12809) (assay: primary screen, population patch clamp on CHO cells stably expressing hERG).
Sequence of human ether-à-go-go-related gene (hERG) potassium channel (Q12809 whole entry, looked up): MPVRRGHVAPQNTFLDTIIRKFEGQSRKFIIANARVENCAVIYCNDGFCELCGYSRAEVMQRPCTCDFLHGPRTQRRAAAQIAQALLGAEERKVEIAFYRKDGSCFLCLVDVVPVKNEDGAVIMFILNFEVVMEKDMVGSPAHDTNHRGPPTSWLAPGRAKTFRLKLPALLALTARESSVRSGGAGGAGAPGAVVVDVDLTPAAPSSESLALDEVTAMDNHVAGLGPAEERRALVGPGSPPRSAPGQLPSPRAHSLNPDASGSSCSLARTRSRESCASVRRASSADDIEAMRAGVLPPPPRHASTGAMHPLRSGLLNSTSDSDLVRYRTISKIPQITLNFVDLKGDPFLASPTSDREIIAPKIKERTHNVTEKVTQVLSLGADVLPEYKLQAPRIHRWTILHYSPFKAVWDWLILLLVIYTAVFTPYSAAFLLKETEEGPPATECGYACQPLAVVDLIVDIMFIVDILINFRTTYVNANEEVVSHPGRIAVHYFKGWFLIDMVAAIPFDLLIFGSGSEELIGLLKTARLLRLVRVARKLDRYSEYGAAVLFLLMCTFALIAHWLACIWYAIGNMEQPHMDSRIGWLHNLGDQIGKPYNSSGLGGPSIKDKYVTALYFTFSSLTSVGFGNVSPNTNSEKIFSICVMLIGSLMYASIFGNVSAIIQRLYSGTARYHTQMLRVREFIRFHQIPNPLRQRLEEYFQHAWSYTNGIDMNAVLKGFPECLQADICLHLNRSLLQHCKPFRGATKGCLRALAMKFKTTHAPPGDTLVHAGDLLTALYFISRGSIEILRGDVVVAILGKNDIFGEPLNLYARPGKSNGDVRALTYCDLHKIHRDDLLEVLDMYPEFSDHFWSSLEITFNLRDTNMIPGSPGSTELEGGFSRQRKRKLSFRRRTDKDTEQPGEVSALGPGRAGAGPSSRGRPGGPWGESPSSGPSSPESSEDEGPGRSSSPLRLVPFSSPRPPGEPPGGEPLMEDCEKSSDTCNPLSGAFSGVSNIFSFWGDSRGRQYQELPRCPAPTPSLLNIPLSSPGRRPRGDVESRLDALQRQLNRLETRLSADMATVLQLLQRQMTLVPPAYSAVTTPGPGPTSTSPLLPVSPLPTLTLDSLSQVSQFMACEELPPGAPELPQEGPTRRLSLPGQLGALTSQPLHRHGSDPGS

| Compound | hERG current change (%, negative = inhibition) at 1uM [%] |
| --- | --- |
| O=c1cc(N2CCN(c3ccccc3F)CC2)[nH]c(=O)n1-c1ccc(Br)cc1 | -32.1 |
| COC(=O)C1=C(C)N(CCCC(=O)O)C(=O)NC1c1ccccc1OS(=O)(=O)c1ccccc1[N+](=O)[O-] (centres unmarked) | 15.6 |
| Cc1nc(N2CCN(C)CC2)c2c(C)c(C(=O)Nc3ccc(F)cc3)sc2n1 | -18.9 |
| COC(=O)c1oc2c(c1C)C(=O)CC(C)(C)C2 | 13.1 |
| COc1cc2c(cc1OC)C(c1ccco1)CC(=O)N2 (centres unmarked) | 4.72 |
| Cc1cccc2nc(CSCc3ccco3)cn12 | 0.819 |
| O=C(NCc1ccccc1Cl)C1CCN(S(=O)(=O)c2ccc(F)cc2)CC1 | -9.56 |
| CN=C1c2c(-c3ccccc3)c3cc(OC)ccc3n2CCN1C.Cl | -31.6 |
| COc1cccc(NC(=O)Nc2ccccc2SC)c1 | -0.158 |
| COc1cc(OC)c(CN2CCC(Cc3ccccc3)CC2)cc1Br | -32.2 |
| Cc1csc(-c2cnn(-c3ccccc3)c2NC(=O)c2cccc(F)c2)n1 | -5.07 |
| COc1ccc(C(=O)Nc2ccc(N3CCN(C(=O)c4cccs4)CC3)cc2)cc1Br | 4.71 |
| Cc1ccccc1NC(=S)NCc1ccccc1 | 3.9 |
| O=C(CCCOc1ccccc1)N1CCN(S(=O)(=O)c2ccc(Cl)cc2)CC1 | 9.06 |
| CN1CCN(CCCNC(=O)c2ccc3c(c2)N(Cc2ccccc2)CCS3)CC1 | -2.68 |
| COc1ccc(N2CC(C(=O)N/N=C/c3ccccc3)CC2=O)cc1 (centres unmarked) | 3.88 |
| O=C(CN(C(=O)Cn1nnc(-c2ccccc2F)n1)c1cccc2c1CCCC2)NCc1ccccc1 | 13.2 |
| COc1cc(C)c(Br)cc1S(=O)(=O)NCc1ccccc1 | 11.9 |
| CCc1c(O)nc(SCC(=O)Nc2ccccc2OC)n(-c2ccccc2C)c1=O | 9.74 |

| Compound | hERG current change (%, negative = inhibition) at 1uM [%] |
| --- | --- |
| Cc1ccc(NC(=O)CCn2c(=O)oc3ccccc32)cc1 | 6.25 |
| CCOc1cc(/C=C2\C(=O)N(c3cccc(C(F)(F)F)c3)C(=O)c3ccccc32)ccc1O | -7.19 |
| CC(C)CN(C(=O)c1cc(=O)[nH]c2ccccc12)c1c(N)n(Cc2ccccc2)c(=O)[nH]c1=O | 7.97 |
| CCO/C([O-])=N/c1c[n+](N2CCOCC2)no1 | 15.4 |
| O/N=C/c1ccc(-c2ccccc2OC(F)(F)F)o1 | 13.6 |
| CN(Cc1cccc(F)c1)C(=O)c1cccc(S(=O)(=O)N2CCN(Cc3ccccc3)CC2)c1 | 6.94 |
| Nc1ccc2oc(-c3ccccn3)nc2c1 | 16.6 |
| CCOC(=O)c1ccc(NC(=O)N2CCN(CCc3ccccc3)CC2)cc1 | -23.8 |
| CC(NC(=O)CN1CCCC1)C12CC3CC(CC(C3)C1)C2.Cl (centres unmarked) | -16 |
| Cn1nc(C(F)(F)F)cc1-c1ccc(/C=C(\C#N)C(=O)c2cccc(C(F)(F)F)c2)s1 | 11.9 |
| CCCCn1c(NCc2cccs2)nc2ccccc21 | -10.1 |
| COc1ccc(CNC(=S)Nc2ccc(OC)cc2)cc1 | 6.92 |
| O=C(NNC(=O)c1ccc(-c2ccccc2)cc1)c1ccccc1 | 8.77 |
| CCc1ccc(/C=C2/C(=O)N(C)C(=S)N2CC(=O)OC)s1 | 11.6 |
| Cc1ccc(S(=O)(=O)NCc2ccc3c(c2)cc(C)n3C)cc1 | 21.8 |
| CCOC(=O)CCc1nn(C)c(=O)c2ccccc12 | 1.87 |
| CCOC(=O)C1CCN(CC(O)COc2ccc(C(C)=O)cc2)CC1.Cl (centres unmarked) | -30.4 |
| O=C(CN1CCOCC1)Nc1cccc(C(F)(F)F)c1 | 7.21 |
| COc1cc(COc2ccc3c(C)c(CCC(=O)O)c(=O)oc3c2)cc(OC)c1OC | 15.5 |

| Compound | hERG current change (%, negative = inhibition) at 1uM [%] |
| --- | --- |
| CSC1=C(C#N)C(c2ccncc2)C(C(=O)Nc2ccccc2)=C(C)N1 (centres unmarked) | 5.44 |
| COc1ccc2ccccc2c1/C=N\NC(=O)c1ccc(C)s1 | 14.6 |
| O=C1CCC(=O)N1OCCOc1ccc2c(c1)CCC2 | -6.51 |
| CN(C)c1nc(Oc2ccc(=O)n(C)n2)nc(N2CCOCC2)n1 | 5.59 |
| CC12CCC(c3c(C(=O)O)nn(-c4ccc(F)cc4)c31)C2(C)C (centres unmarked) | 6.67 |
| O=C(Oc1ccc[nH]c1=O)c1cccc(Cl)c1 | 8.24 |
| O=C(NC(=S)Nn1cnnc1)c1cccc(Br)c1 | -1.47 |
| COC(=O)c1cc2ccsc2n1CC(=O)N1CCCc2ccccc21 | -4.72 |
| COc1ccc(OC)c(C2=NOC(C(=O)Nc3ccc4c(c3)OCCO4)C2)c1 (centres unmarked) | 12.3 |
| CC(C)(C)n1cnc2cc(NCc3ccccc3O)ccc21 | 2.16 |
| CCN1C(=O)[C@H]2[C@@H](c3ccc(-c4ccc(C(C)=O)cc4)cc3)N[C@@](Cc3ccccc3)(C(=O)OC)[C@H]2C1=O.O=C(O)C(F)(F)F | 12.3 |
| O=C(N1CCOCC1)C1(S(=O)(=O)c2ccccc2)CC=CC1 | 11.9 |
| Cc1nnc(NC(=O)c2ccc(S(=O)(=O)N3CC(C)OC(C)C3)cc2)o1 (centres unmarked) | 3.35 |
| COc1cc(NC(=O)c2cc([N+](=O)[O-])ccc2NC(=O)CNC2CCCCC2)cc(OC)c1 | 15 |
| Cc1ccc(S(=O)(=O)N2CCC(C(=O)OCC(=O)N(CC(C)C)C3CCS(=O)(=O)C3)CC2)cc1C (centres unmarked) | 10.8 |
| COc1ccccc1CC(=O)NCc1nn(-c2ccccc2)nc1C | 13.1 |
| C=CCNC(=O)N1CCCC(N2CCN(c3ccccc3OC)CC2)C1 (centres unmarked) | 9.02 |
| Cc1cc(C)c(Nc2cc(S(=O)(=O)[O-])c(N)c3c2C(=O)c2ccccc2C3=O)c(C)c1.[Na+] | 14.2 |
